Reference: US7157486B2, “Viral polymerase inhibitors” (Boehringer Ingelheim (Canada) Ltd., priority 2001, dated 2007)

Test system: Huh7 cells that stably maintain a subgenomic HCV replicon (S22.3 cell-line)
Assay: Cell based HCV RNA replication assay (S22.3 replicon cells, real-time RT-PCR)
Settings: Hepatitis C virus
From the text: Preparation of Test Compound
Application of Test Compound to Cells
Extraction of Total Cellular RNA
Quantification of Total Cellular RNA

[1] = Huh-7, Table 1, S22.3 cells, 72 hours incubation, HCV RNA by RT-PCR, read-out: EC50

SMILES	EC50 [1] [nM]	EC50 (Huh-7, 72 h) [nM]
COCCNc1nc(-c2c(C3CCCC3)c3ccc(C(=O)O)cc3n2C)cs1 [compound 123]	> 1000	–
Cc1nc(-c2c(C3CCCC3)c3ccc(C(=O)O)cc3n2C)cs1 [compound 121]	> 1000	–
CN(C)CCNc1nc(-c2c(C3CCCC3)c3ccc(C(=O)O)cc3n2C)cs1 [compound 127]	> 1000	–
Cn1c(-c2nccs2)c(C2CCCC2)c2ccc(C(=O)O)cc21 [compound 129]	> 1000	–
CC(=O)Nc1nc(-c2c(C3CCCC3)c3ccc(C(=O)O)cc3n2C)cs1 [compound 118]	> 1000	–
Cn1c(-c2ccccn2)c(C2CCCCC2)c2ccc(C(=O)O)cc21 [compound 106]	> 1000	–
O=C(O)c1ccc2c(C3CCCC3)c(-c3ccccn3)oc2c1 [compound 141]	> 1000	–
O=C(O)c1ccc2c(C3CCCC3)c(-c3ccccn3)[nH]c2c1 [compound 145]	> 1000	–
Cn1c(-c2cnco2)c(C2CCCC2)c2ccc(C(=O)O)cc21 [compound 128]	–	> 1000
Cn1c(-c2ccsc2)c(C2CCCC2)c2ccc(C(=O)O)cc21 [compound 132]	> 1000	–
Cn1c(-c2cccc(N)n2)c(C2CCCCC2)c2ccc(C(=O)O)cc21 [compound 112]	> 1000	–
Cn1c(-c2ccc(N)cc2)c(C2CCCC2)c2ccc(C(=O)O)cc21 [compound 131]	–	> 1000
Cc1cccc(-c2c(C3CCCC3)c3ccc(C(=O)O)cc3n2C)n1 [compound 133]	> 1000	–
O=C(O)c1ccc2c(C3CCCCC3)c(-c3ccoc3)[nH]c2c1 [compound 102]	–	> 1000
Cn1c(-c2ccoc2)c(C2CCCC2)c2ccc(C(=O)O)cc21 [compound 111]	–	> 1000
Cn1c(-c2cnccn2)c(C2CCCCC2)c2ccc(C(=O)O)cc21 [compound 109]	> 1000	–
CNc1nc(-c2c(C3CCCC3)c3ccc(C(=O)O)cc3n2C)cs1 [compound 119]	> 1000	–
Cn1c(-c2ccoc2)c(C2CCCCC2)c2ccc(C(=O)O)cc21 [compound 107]	–	> 1000
Cc1ccc(-c2c(C3CCCCC3)c3ccc(C(=O)O)cc3n2C)nc1 [compound 108]	< 1000	–
O=C(O)c1ccc2c(C3CCCC3)c(-c3ccccn3)sc2c1 [compound 138]	> 1000	–
Cn1c(-c2ccccn2)c(C2CCCC2)c2ccc(C(=O)O)cc21 [compound 115]	> 1000	–
Cn1c(-c2cnccn2)c(C2CCCC2)c2ccc(C(=O)O)cc21 [compound 135]	> 1000	–
Cn1c(-c2cscn2)c(C2CCCC2)c2ccc(C(=O)O)cc21 [compound 117]	> 1000	–

Read-outs that look alike come from different tables or passages of the source.
